Results on seven compounds are retold here after PubChem BioAssay AID330 (DTP/NCI, 2004).

Inconclusive results and toxic doses are left out. For part of its entries the source gives two or more results. This is not the full list of results. There may be further records. Values given together do not match, cause unknown; some may be repeats, others may stem from another dose, organism or construct than stated.

The test system of this assay is P388 leukemia ip, CD2F1 mice, survival T/C. In words: NCI In Vivo Anticancer Drug Screen. Data for tumor model P388 Leukemia (intraperitoneal) in CD2F1 (CDF1) mice. The following applies: endpoint: median survival time, higher = longer survival.

On to `COc1cccc2c1C(=O)c1c(O)c3c(c(O)c1C2=O)C[C@@](O)(C(=O)CO)C[C@@H]3OC1CC(N2CCOCC2C#N)C(O)C(C)O1` (some centres not stated), for which, for the setting “dose: 37.5 micrograms/kg/injection, schedule: Q04DX003 (ip), vehicle: water”, the T/C was 108 % of control and 188 % of control.
With `S=P(N1CC1)(N1CC1)N1CC1`, the T/C (dose: 6.0 mg/kg/injection, schedule: Q01DX009 (ip), vehicle: saline) is 116 % of control and 187 % of control.
Turning to `COc1c(O)c2c(c3cc(C(=O)N4CCc5c4c(O)c(OC)c4[nH]c(C(=O)N6CC7CC78C6=CC(=O)c6[nH]cc(C)c68)cc54)[nH]c13)CCN2C(N)=O` (configuration not stated), the T/C (dose: 0.06 mg/kg/injection, schedule: Q04DX003 (ip), vehicle: DMSO) is 118 % of control and 164 % of control.
In the case of `Nc1nc(N)c2cc(N3CCCC3c3ccc(Cl)cc3)ccc2n1` (configuration not stated), the T/C (dose: 6.25 mg/kg/injection, schedule: Q01DX009 (ip), vehicle: Klucel (hydroxypropylcellulose) (HPC)) is on record as 115 % of control, 121 % of control, 162 % of control.
On to `CCC1(O)CC2CN(CCc3c([nH]c4ccccc34)C(C(=O)OC)(c3cc4c(cc3OC)N(C)C3C(O)(C(=O)NCCSSCCNC(=O)C5(O)C(O)C6(CC)C=CCN7CCC8(c9cc(C%10(C(=O)OC)CC%11CN(CCc%12c%10[nH]c%10ccccc%12%10)CC(O)(CC)C%11)c(OC)cc9N(C)C58)C76)C(O)C5(CC)C=CCN6CCC43C65)C2)C1` (configuration not stated), for which the T/C (dose: 1.5 mg/kg/injection, schedule: Q04DX003 (ip), vehicle: saline) is 112 % of control and 186 % of control.
On to `N=C(N)c1ccc(Nc2ccc(-c3cc4ccc(C(=N)N)cc4[nH]3)cc2)cc1`, for which, under “dose: 15.0 mg/kg/injection, schedule: Q01DX005 (ip), vehicle: Klucel (hydroxypropylcellulose) (HPC)”, the T/C was 116 % of control and 193 % of control.
Regarding `COc1cc([C@@H]2c3cc4c(cc3[C@@H](OC3OC5COC(C)OC5C(O)C3O)[C@H]3COC(=O)[C@H]23)OCO4)cc(OC)c1O` (some centres not stated), under “dose: 8.0 mg/kg/injection, schedule: Q01DX009 (ip), vehicle: saline”, the T/C is 91 % of control and 446 % of control.
